Assay results taken from US10299477B2 (priority 2015, dated 2019).

How the values were obtained:
Assay type in all cases: in vivo
[1] = test system: Plasmopara viticola; assay: Test Example G: Downy mildew on vine; details: 250 ppm spray (2.5 ml/pot), preventive; 7-10 days after inoculation; control value class
From the text: [Test Example G] Downy Mildew on Vine
Seeds of a test plant (grape variety: Neomuscat) were planted followed by cultivating until three to four first leaves appeared. […] After the sprayed dilutions were dried, a zoosporangia suspension (1-2×10^4 zoosporangia/ml) of Plasmopara viticola was inoculated to the plants by spraying.

[2] = test system: Puccinia recondita; assay: Test Example E: Brown rust on wheat; details: 250 ppm spray, preventive; control value class
From the text: [Test Example E] Brown Rust on Wheat

[3] = test system: Blumeria graminis f sp. hordei; assay: Test Example D: Powdery mildew on barley; details: 250 ppm spray, preventive; control value class
From the text: [Test Example D] Powdery Mildew on Barley
After the sprayed dilutions were dried, conidia of Blumeria graminis f sp. hordei were inoculated to the plants by shaking off.

[4] = test system: Botrytis cinerea; assay: Test Example B: Gray mold on tomato; details: 250 ppm spray, preventive; control value class
From the text: [Test Example B] Gray Mold on Tomato
Seeds of a test plant (tomato variety: Oogata Fukuju) were planted followed by cultivating until three to five first leaves (true leaves) appeared.

[5] = test system: Alternaia brassicicola; assay: Test Example C: Alternaria sooty spot on cabbage; details: 250 ppm spray, preventive; control value class
From the text: [Test Example C] Alternaria Sooty Spot on Cabbage
Seeds of a test plant (cabbage variety: Shikidori) were planted followed by cultivating until the cotyledons extended.

SMILES | Test G control value (downy mildew on vine) [1] | Test E control value (brown rust on wheat) [2] | Test D control value (powdery mildew on barley) [3] | Test B control value (gray mold on tomato) [4] | Test C control value (Alternaria sooty spot on cabbage) [5]
CCn1c(-c2c(F)cccc2F)c(-c2ccc(Br)cc2)cc(Cl)c1=O [Compound 294] | H (H shows more than 50% of control values) | H (H shows more than 50% of control values) | H (H shows more than 50% of control values) | H (H shows more than 50% of control values) | H (H shows more than 50% of control values)
Cn1c(-c2c(F)cccc2F)c(-c2cc(OC3CCCCC3)ccc2Cl)ccc1=O [Compound 296] | L (L shows 50% or less of control values) | L (L shows 50% or less of control values) | L (L shows 50% or less of control values) | H (H shows more than 50% of control values) | L (L shows 50% or less of control values)
COC(=O)Oc1ccc(Cl)c(-c2ccc(=O)n(C)c2-c2c(F)cccc2F)c1 [Compound 298] | L (L shows 50% or less of control values) | H (H shows more than 50% of control values) | H (H shows more than 50% of control values) | H (H shows more than 50% of control values) | H (H shows more than 50% of control values)
CCn1c(-c2c(F)cccc2F)c(-c2cccc(C(F)(F)F)c2)cc(Cl)c1=O [Compound 299] | L (L shows 50% or less of control values) | H (H shows more than 50% of control values) | H (H shows more than 50% of control values) | H (H shows more than 50% of control values) | H (H shows more than 50% of control values)
CCn1c(-c2c(F)cccc2F)c(-c2ccc(OC)cc2)ccc1=O [Compound 301] | L (L shows 50% or less of control values) | H (H shows more than 50% of control values) | H (H shows more than 50% of control values) | H (H shows more than 50% of control values) | H (H shows more than 50% of control values)
CCn1c(-c2c(F)cccc2F)c(-c2ccc(OC)cc2)cc(Cl)c1=O [Compound 302] | L (L shows 50% or less of control values) | H (H shows more than 50% of control values) | H (H shows more than 50% of control values) | H (H shows more than 50% of control values) | H (H shows more than 50% of control values)
CCn1c(-c2c(F)cccc2F)c(-c2cc(OCC(C)=O)ccc2Cl)ccc1=O [Compound 303] | L (L shows 50% or less of control values) | H (H shows more than 50% of control values) | H (H shows more than 50% of control values) | H (H shows more than 50% of control values) | H (H shows more than 50% of control values)
CC(=O)COc1ccc(Cl)c(-c2ccc(=O)n(C)c2-c2c(F)cccc2F)c1 [Compound 304] | L (L shows 50% or less of control values) | H (H shows more than 50% of control values) | H (H shows more than 50% of control values) | H (H shows more than 50% of control values) | H (H shows more than 50% of control values)
CCn1c(-c2c(F)cccc2F)c(-c2cc(OCSC)ccc2Cl)ccc1=O [Compound 305] | L (L shows 50% or less of control values) | H (H shows more than 50% of control values) | H (H shows more than 50% of control values) | H (H shows more than 50% of control values) | H (H shows more than 50% of control values)
CCOC(=O)COc1ccc(Cl)c(-c2ccc(=O)n(CC)c2-c2c(F)cccc2F)c1 [Compound 307] | L (L shows 50% or less of control values) | H (H shows more than 50% of control values) | L (L shows 50% or less of control values) | H (H shows more than 50% of control values) | L (L shows 50% or less of control values)
CCOC(=O)COc1ccc(Cl)c(-c2ccc(=O)n(C)c2-c2c(F)cccc2F)c1 [Compound 308] | L (L shows 50% or less of control values) | H (H shows more than 50% of control values) | L (L shows 50% or less of control values) | H (H shows more than 50% of control values) | L (L shows 50% or less of control values)
CCn1c(-c2c(F)cccc2F)c(-c2cc(OCS(C)(=O)=O)ccc2Cl)ccc1=O [Compound 309] | L (L shows 50% or less of control values) | H (H shows more than 50% of control values) | L (L shows 50% or less of control values) | H (H shows more than 50% of control values) | H (H shows more than 50% of control values)
CCn1c(-c2c(F)cccc2F)c(-c2cc(OCCCOC)ccc2Cl)ccc1=O [Compound 310] | L (L shows 50% or less of control values) | H (H shows more than 50% of control values) | H (H shows more than 50% of control values) | H (H shows more than 50% of control values) | H (H shows more than 50% of control values)
COCCCOc1ccc(Cl)c(-c2ccc(=O)n(C)c2-c2c(F)cccc2F)c1 [Compound 311] | L (L shows 50% or less of control values) | H (H shows more than 50% of control values) | H (H shows more than 50% of control values) | H (H shows more than 50% of control values) | H (H shows more than 50% of control values)
Cn1c(-c2c(F)cccc2F)c(-c2cc(OCS(C)(=O)=O)ccc2Cl)ccc1=O [Compound 312] | L (L shows 50% or less of control values) | H (H shows more than 50% of control values) | L (L shows 50% or less of control values) | H (H shows more than 50% of control values) | L (L shows 50% or less of control values)
C=CCOc1ccc(Cl)c(-c2ccc(=O)n(CC)c2-c2c(F)cccc2F)c1 [Compound 313] | L (L shows 50% or less of control values) | H (H shows more than 50% of control values) | H (H shows more than 50% of control values) | H (H shows more than 50% of control values) | H (H shows more than 50% of control values)
C=CCOc1ccc(Cl)c(-c2ccc(=O)n(C)c2-c2c(F)cccc2F)c1 [Compound 314] | H (H shows more than 50% of control values) | H (H shows more than 50% of control values) | H (H shows more than 50% of control values) | H (H shows more than 50% of control values) | H (H shows more than 50% of control values)
Cn1c(-c2c(F)cccc2F)c(-c2cc(OCC3OCCO3)ccc2Cl)ccc1=O [Compound 316] | L (L shows 50% or less of control values) | H (H shows more than 50% of control values) | H (H shows more than 50% of control values) | H (H shows more than 50% of control values) | L (L shows 50% or less of control values)
CCn1c(-c2c(F)cccc2F)c(-c2cc(OCCC3OCCCO3)ccc2Cl)ccc1=O [Compound 317] | L (L shows 50% or less of control values) | H (H shows more than 50% of control values) | H (H shows more than 50% of control values) | H (H shows more than 50% of control values) | H (H shows more than 50% of control values)
